Assay results published in PubChem BioAssay AID1645887 (National Center for Advancing Translational Sciences (NCATS), 2021).
“And” between values parts separate entries of the source, which are not always exact repeats. Equal values may be shown once. Screen size: about 16,000 compounds; about 40 (0.2%) were called active. Inconclusive results (about 1%) are left out. The call rests on the fitted dose curve; in most records, active means well fitted activation curve with a large enough effect; inconclusive means small, poorly fitted or top-dose-only effect, or another doubt; inactive means no such curve, though single readings can be large or run the other way. This is one part of the list.

The molecules below were run against Rap guanine nucleotide exchange factor 4 (Homo sapiens) (UniProt Q8WZA2) (assay: Validation qHTS for agonist of cAMP-regulated guanine nucleotide exchange factor 4 (EPAC2)). Conditions: EPAC2 Rap1B BODIPY-GDP exchange, fluorescence; activation: stronger effect = higher value.
Chain of UniProt Q8WZA2 (Q8WZA2 whole entry, looked up): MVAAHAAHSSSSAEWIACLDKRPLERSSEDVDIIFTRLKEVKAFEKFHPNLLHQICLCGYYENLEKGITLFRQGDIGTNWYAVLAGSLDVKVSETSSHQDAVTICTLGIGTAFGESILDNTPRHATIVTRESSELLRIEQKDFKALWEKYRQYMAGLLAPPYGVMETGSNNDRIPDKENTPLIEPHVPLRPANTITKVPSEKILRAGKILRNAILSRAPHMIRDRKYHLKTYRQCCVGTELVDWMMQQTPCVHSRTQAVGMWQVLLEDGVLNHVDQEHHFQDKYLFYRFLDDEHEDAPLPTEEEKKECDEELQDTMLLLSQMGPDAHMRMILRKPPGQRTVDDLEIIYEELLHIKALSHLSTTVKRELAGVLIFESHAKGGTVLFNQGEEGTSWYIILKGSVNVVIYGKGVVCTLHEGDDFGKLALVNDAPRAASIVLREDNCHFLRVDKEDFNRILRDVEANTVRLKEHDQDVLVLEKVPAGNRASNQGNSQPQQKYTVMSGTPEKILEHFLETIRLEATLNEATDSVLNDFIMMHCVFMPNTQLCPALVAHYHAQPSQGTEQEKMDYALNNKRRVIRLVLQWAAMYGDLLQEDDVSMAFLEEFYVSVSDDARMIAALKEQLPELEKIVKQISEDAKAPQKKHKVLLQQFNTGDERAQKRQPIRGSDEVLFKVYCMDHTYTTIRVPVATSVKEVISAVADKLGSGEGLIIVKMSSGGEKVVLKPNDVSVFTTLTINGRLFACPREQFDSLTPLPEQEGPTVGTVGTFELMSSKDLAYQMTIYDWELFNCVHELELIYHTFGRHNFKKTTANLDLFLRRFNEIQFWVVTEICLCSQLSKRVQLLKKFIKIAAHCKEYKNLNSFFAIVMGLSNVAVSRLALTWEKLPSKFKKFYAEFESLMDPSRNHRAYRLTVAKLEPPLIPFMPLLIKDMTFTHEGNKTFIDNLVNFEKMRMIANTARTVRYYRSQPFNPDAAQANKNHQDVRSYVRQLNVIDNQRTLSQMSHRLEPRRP
Method in brief: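 Signal normalized against 6.5 mM cAMP as agonist control. Mix of EPAC2 (100 nM), RAP1B-BODIPY-GDP (250 nM) and GDP (50 uM) was read kinetically at 480/540 nm, every 5 min over 30 min, after 5 min room-temperature incubation with compound.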
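Further: exchange makes BODIPY-GDP fluorescence drop when released from Rap1B; series mostly up to about 150 µM.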
On the % scale 0 is the no-effect control and ±100 the full control effect.

activation, inactive:
CO[C@H]1[C@H](NC(=O)c2ccsc2)c2ccccc2C12CCN(Cc1cnn(C)c1C)CC2 1.86%
COCC(=O)Nc1cc(C(=O)N2CCN(c3ccccc3)CC2C)c2c(c1)nc(-c1ccncc1)n2C (configuration not stated) -7.41%
Cc1ccc(CN2CCOc3ccc(C(C)(O)COc4ccccc4)cc3C2)o1 (configuration not stated) -9.89%
CN(C)C(=O)c1ccc(-c2ccc3ncnc(NC4CCNCC4)c3c2)cc1 1%
Cc1nc2cnc(Nc3ccccc3)nc2n(Cc2ccc(F)cc2)c1=O 7.06%
COc1cc2c(cc1OC)/C(=C/c1ccc(N(C)C)cc1)C=C2 -1.18%
c1ccc2c(c1)CCC[C@H]2Nc1nc2ccccc2[nH]1 -25.6%
CCCCCCCCCCCC[n+]1ccc2ccccc2c1 8.11%
CC(C)(C)NC[C@H](O)COc1nsnc1N1CCOCC1 0.408% and -10.7% and -20%
C[C@]12CCC(=O)C=C1CC[C@@H]1[C@@H]2[C@@H](O)C[C@@]2(C)[C@H]1CC[C@]2(O)C(=O)COC(=O)CCC(=O)O -31%
Cc1cc(C(=O)NCC2CCC3(CCN(Cc4ccc5ccccc5c4)CC3)O2)n(C)n1 (configuration not stated) -7.17%
CN(C)c1ccc(C=O)c(O)c1 -12.8%
Oc1ccccc1O -33.7%
N[C@@H](C(=O)O)c1ccc(P(=O)(O)O)cc1 -12%
Cc1cccc(CNC(=O)c2cnn(-c3ncc(C)c(-c4cccs4)n3)c2C2CC2)n1 5.07%
C[C@@H]1CCC2[C@](C)(CO)[C@@H](O)CC[C@]2(C)[C@]12CCC(CO)(CCO)O2 (some centres not stated) -7.73%
O=C(NCC1CCC2(CCN(Cc3cccc4cccnc34)CC2)O1)c1ccco1 (configuration not stated) 3.35%
O=C1CCN(Cc2ccccc2)CCN1CCOc1ccccc1 -18.1%
COC(=O)[C@@H]1CCCN1Cc1ccc2c(c1)CN(Cc1cccn1-c1ccc(Cl)cn1)CCO2 -1.14%
O=c1c(-c2ccc(Cl)cc2)nc2cncnc2n1Cc1ccccc1Cl 4.02%
CO/N=C(\C(=O)N[C@@H]1C(=O)N2C(C(=O)O)=C(CSc3nc(=O)c(O)nn3C)CS[C@H]12)c1csc(N)n1 -10.9%
NC(=O)CC[C@@H](N)C(=O)O -19.5%
Cc1cc2ccc(=O)oc2cc1OC[C@@H](O)C(C)(C)O 1.78%
CCCCOC(=O)NS(=O)(=O)c1sc(CC(C)C)cc1-c1ccc(Cn2c(CC)nc3c(C)cc(C)nc32)cc1 -71.8%
O=C(Cc1cccs1)N[C@@H]1C(=O)N2C(C(=O)[O-])=C(C[n+]3ccccc3)CS[C@H]12 -11.2%
Cn1nccc1C(=O)NCC1CCC2(CCN(Cc3ccc(-c4ccc(Cl)cc4)o3)CC2)O1 (configuration not stated) -1.07%
CC(C)=O 1.69%
Cn1cc(CN2CCOc3ccc(C(O)C4CCCCC4)cc3C2)cn1 (configuration not stated) -4.71%
CC1CN(CC(=O)NCc2ccc3c(c2)OCO3)Cc2cc(Cl)ccc2O1 (configuration not stated) -18.1%
COc1cccc(-c2oc3ccccc3c(=O)c2O)c1 2.7%
COc1ccc2[nH]cc(CCNc3nc(-c4ccoc4)nc4ccccc34)c2c1 0.308%
COc1ccc(N2C(=O)[C@@H]3C[C@H]2CN3Cc2cccn2-c2ccccn2)cc1Cl 2.13%
OB(O)O 8.43%
COCc1ccc(CN2CCOc3c(cc(-c4cc(C)c5cccc(OC)c5n4)cc3OC)C2)o1 -2.23%
Fc1ccc(N2CCN(Cc3ccc4c(c3)CN(Cc3cccn3-c3cccnc3)CCO4)CC2)cc1 -6.77%
Clc1ccccc1-c1nccc(NCc2ccccc2)n1 -17.5%
C=C1C(=O)OC2C[C@@]3(C)CCCC(C)C3=CC12 (some centres not stated) 8.26%
CC(C)=CCN1CCC2(CCc3ccccc32)CC1 3.48%
COc1ccccc1-c1ccnc(-n2ncc(C(=O)NCCc3ccccn3)c2C)n1 1.35%
FC(F)(F)c1ccccc1-c1ccc2ncnc(NCc3cccnc3)c2c1 -4.36%
COc1ccccc1CCn1c(=O)c(-c2cccs2)nc2cncnc21 -5.5%
COc1ccc(-n2c(=O)c(-c3cccc(F)c3)nc3cncnc32)cc1 -1.59%
COc1ccc(C(=O)N2CCC3(CCCN(Cc4ccccc4OC)C3)CC2)cc1 -5.71%
CN1CCN(c2ncnc3ccc(-c4cccc(NS(C)(=O)=O)c4)cc23)CC1 -11.2%
Cc1cc(C)n(-c2ccc(C(=O)N3CCc4c(cnc(C)c4CNC(=O)c4ccccc4F)C3)cc2)n1 -25.1%
CCOC(=O)OC(C)OC(=O)[C@@H]1N2C(=O)[C@@H](NC(=O)[C@H](N)c3ccccc3)[C@H]2SC1(C)C (some centres not stated) -9.66%
COc1ccc(C2OCC3(COC(C)=O)C(C)C=C(C)C2C3C)cc1 (configuration not stated) -20.6%
CCCCCCCCCCCCCCCC[N+](C)(C)CC -8.9%
CCOC(=O)[C@H](CCc1ccccc1)N[C@H]1CCc2ccccc2N(CC(=O)O)C1=O -11%
CC1=CC(=O)C2C(C)(C)CCC[C@@]2(C)[C@@]1(O)CCc1ccoc1 (some centres not stated) -1.92%
COC(=O)/C=C\c1cc(O)ccc1O -11.4%
COc1ccc(-c2nc3cnc(Oc4ccccc4)nc3n(Cc3cccs3)c2=O)cc1 -2.11%
CCC(CCC(C)C1CCC2C3CC=C4CC(OC(C)=O)CC[C@@]4(C)C3CC[C@@]12C)C(C)C (some centres not stated) -26.5%
CCCCNc1ccc(C(=O)OCCN(CC)CC)cc1 -14.1%
COc1cc2c(cc1OC)-c1cc(=Nc3c(C)cc(C)cc3C)n(C)c(=O)n1CC2 -14.2% and -24.7%
COc1ccc(Oc2ncc3nc(-c4cc(F)cc(F)c4)c(=O)n(CCC#N)c3n2)cc1 -16.4%
N#CCCn1c(=O)c(-c2cccs2)nc2cnc(N3CCOCC3)nc21 2.82%
CC1=C(C(=O)O)N2C(=O)C(NC(=O)C(N)C3=CCC=CC3)C2SC1 (configuration not stated) -5.59%
CCNC(=O)N1CCN(CCCC(c2ccc(F)cc2)c2ccc(F)cc2)CC1 -11.2% and -17.1%
Fc1ccc(C(OCCCc2cnc[nH]2)c2ccc(F)cc2)cc1 -65.8%
CCOC(=O)C[C@H]1c2ccc(C(F)(F)F)cc2S(=O)(=O)N1C1CCCC1 -26.6%
O=c1c(-c2ccc(F)c(F)c2)nc2cncnc2n1Cc1ccccc1 -20.1%
O=c1[nH]c(Cl)nc2c1ncn2C1OC(CO)C(O)C1O (configuration not stated) -14%
COC(=O)N1CCC2(CCCN(Cc3cc(C(F)(F)F)cc(C(F)(F)F)c3)C2)CC1 -27.8%
CCN(CC)CCC(=O)N1c2ccccc2Sc2ccc(C(F)(F)F)cc21 4.09%
O=C(NCC1Cc2cccc(-c3cnccn3)c2O1)C1COc2ccccc2O1 (configuration not stated) -10%
CNc1cc(-c2ccccc2CN(C)C)ncn1 -7.79%
O=C1CCC(c2ccc(-n3ccnc3)cc2)=NN1 -7.5% and -44%
CS(=O)(=O)Nc1cc(C(=O)N2CCNC(=O)C2)c2c(c1)ncn2CCc1ccccc1 1.91%
COc1ccccc1CCc1nc2ccccc2n1C1CCN(C(=O)c2cn3ccsc3n2)CC1 -19%
COc1ccc(NC(=O)N2CCCC3(CCN(C(=O)c4cccn4C)CC3)C2)cc1 -8.96%
CC(C)c1cnc(NC(=O)Cc2ccccc2)s1 -13%
COc1ccc(-c2nc3cnc(Nc4cccc(OC)c4)nc3n(C3CC3)c2=O)cc1 9.38%
CC(C)n1c(/C=C/[C@@H](O)C[C@@H](O)CC(=O)O)c(-c2ccc(F)cc2)c2ccccc21 -44.4%
Cn1c(=O)c(-c2ccccc2)c(O)c2ccccc21 -21.1%
COC1=C(OC)C(=O)C(CCCCCCCCCCO)=C(C)C1=O -18.3%
FC(F)(F)c1ccccc1-c1ccc2ncnc(NCCN3CCOCC3)c2c1 0.881%
